From the supplement of paper PMC8728848
This is one part of the list.

Columns and labels:
Test in all cases: glycan array binding signal (z-score within array); higher = stronger binding
Settings in all cases: glycan notation: IUPAC condensed, linker removed
[1] = molecular target: Gal(b1-4)GlcNAc(b1-6)GalNAc
Procedure, shortened: (§1)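 Negative Z-scores can be read as non-binding. The Z-score is calculated within each array and then averaged across arrays of one protein sequence at different concentrations or buffers and across linkers. Arrays, 3228 in all, were curated from the Consortium for Functional Glycomics database and kept only where the protein sequence was available.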

[2] = molecular target: Gal(b1-4)GlcNAc(b1-6)[Gal(b1-3)]GalNAc
Procedure, shortened: as §1

[3] = molecular target: Gal(b1-4)GlcNAc(b1-6)[Gal(b1-4)GlcNAc(b1-3)]GalNAc
Procedure, shortened: as §1

Gal(b1-4)GlcNAc6P = molecular target: Gal(b1-4)GlcNAc6P
Procedure, shortened: as §1

Gal(b1-6)Gal = molecular target: Gal(b1-6)Gal
Procedure, shortened: as §1

Gal3S(b1-3)GalNAc = molecular target: Gal3S(b1-3)GalNAc
Procedure, shortened: as §1

Gal3S(b1-3)GlcNAc = molecular target: Gal3S(b1-3)GlcNAc
Procedure, shortened: as §1

[4] = molecular target: Gal3S(b1-3)[Fuc(a1-4)]GlcNAc
Procedure, shortened: as §1

Gal3S(b1-4)Glc = molecular target: Gal3S(b1-4)Glc
Procedure, shortened: as §1

Gal3S(b1-4)Glc6S = molecular target: Gal3S(b1-4)Glc6S
Procedure, shortened: as §1

Gal3S(b1-4)GlcNAc = molecular target: Gal3S(b1-4)GlcNAc
Procedure, shortened: as §1

[5] = molecular target: Gal3S(b1-4)[Fuc(a1-3)]Glc6S
Procedure, shortened: as §1

[6] = molecular target: Gal3S(b1-4)[Fuc(a1-3)]GlcNAc
Procedure, shortened: as §1

[7] = molecular target: Gal3S(b1-4)[Fuc(a1-3)]GlcNAc6S
Procedure, shortened: as §1

Gal3S4S(b1-4)GlcNAc = molecular target: Gal3S4S(b1-4)GlcNAc
Procedure, shortened: as §1

Gal3S6S(b1-4)GlcNAc = molecular target: Gal3S6S(b1-4)GlcNAc
Procedure, shortened: as §1

Gal3S6S(b1-4)GlcNAc6S = molecular target: Gal3S6S(b1-4)GlcNAc6S
Procedure, shortened: as §1

Gal4S(b1-4)GlcNAc = molecular target: Gal4S(b1-4)GlcNAc
Procedure, shortened: as §1

Gal4S6S(b1-4)GlcNAc = molecular target: Gal4S6S(b1-4)GlcNAc
Procedure, shortened: as §1

Gal6P(b1-4)GlcNAc = molecular target: Gal6P(b1-4)GlcNAc
Procedure, shortened: as §1

Gal6S(b1-3)GlcNAc = molecular target: Gal6S(b1-3)GlcNAc
Procedure, shortened: as §1

Gal6S(b1-3)GlcNAc6S = molecular target: Gal6S(b1-3)GlcNAc6S
Procedure, shortened: as §1

Gal6S(b1-4)Glc = molecular target: Gal6S(b1-4)Glc
Procedure, shortened: as §1

Gal6S(b1-4)Glc6S = molecular target: Gal6S(b1-4)Glc6S
Procedure, shortened: as §1

Gal6S(b1-4)GlcNAc = molecular target: Gal6S(b1-4)GlcNAc
Procedure, shortened: as §1

Gal6S(b1-4)GlcNAc6S = molecular target: Gal6S(b1-4)GlcNAc6S
Procedure, shortened: as §1

GalNAc(a1-3)Gal = molecular target: GalNAc(a1-3)Gal
Procedure, shortened: as §1

GalNAc(a1-3)GalNAc = molecular target: GalNAc(a1-3)GalNAc
Procedure, shortened: as §1

[8] = molecular target: GalNAc(a1-3)GalNAc(b1-3)Gal(a1-4)Gal(b1-4)Glc
Procedure, shortened: as §1

[9] = molecular target: GalNAc(a1-3)GalNAc(b1-3)Gal(a1-4)Gal(b1-4)GlcNAc
Procedure, shortened: as §1

GalNAc(b1-3)Gal = molecular target: GalNAc(b1-3)Gal
Procedure, shortened: as §1

[10] = molecular target: GalNAc(b1-3)Gal(a1-4)Gal(b1-4)GlcNAc
Procedure, shortened: as §1

[11] = molecular target: GalNAc(b1-3)Gal(a1-4)Gal(b1-4)GlcNAc(b1-3)Gal(b1-4)Glc
Procedure, shortened: as §1

[12] = molecular target: GalNAc(b1-3)Gal(a1-6)Gal(b1-4)Glc
Procedure, shortened: as §1

GalNAc(b1-3)GalNAc = molecular target: GalNAc(b1-3)GalNAc
Procedure, shortened: as §1

GalNAc(b1-3)GlcNAc = molecular target: GalNAc(b1-3)GlcNAc
Procedure, shortened: as §1

GalNAc(b1-4)Gal(b1-4)Glc = molecular target: GalNAc(b1-4)Gal(b1-4)Glc
Procedure, shortened: as §1

GalNAc(b1-4)GlcNAc = molecular target: GalNAc(b1-4)GlcNAc
Procedure, shortened: as §1

B1: PX14343B-bfa-546-20-546 (Bacteroides fragilis) (protein)
chain: CDLERYPLTDLSEETFWNSESNAELALTSLYRGSLTDGVEYNPSDWWSYHGMIMMEHLSDNAFDRRGENNPFFKISSGNLTADNAFIKRYWETSYKRIGYCNRFLVGIQNSSESEKKTRMIAEARFLRATQYFYLASYFKNVPLVENVLTGEEANNVTKTSQADILKWCVTEFTAAAADLPRFSAIPAGEAGRACKQAALAFLGRTCMLQKDWKSGAKAFHDIMELGDNAINANYQELFYPSTGTSNKENIFYIQYLENYLGTGLPQHALSAKDGGWSLVNPAADLYESYEFKDGTPFSYDDPRYDPSNLGKDRDPRLDYTIYYNGAIFMGTEYKMSPDYSAAKKEKLDYTSEASRTGFMMRKYFEESTPINDVQSANGLTPVIRYAEVLLGYLECLVEDNQTITQGILDETINAVRGRASVNMPPVTEVTPAKLREIVRHERRIELAMEGIRYWDIMRWGIAHEVLSQKIWGAPYPGSTQYATTTKEVDPTGNYRWYVGKRAFRNPTDYTWPIPQSEQNINPNLRD
glycan array binding signal (z-score) [1]: -0.116
glycan array binding signal (z-score) [2]: -0.129
glycan array binding signal (z-score) [3]: -0.113
glycan array binding signal (z-score) (Gal(b1-4)GlcNAc6P): -0.129
glycan array binding signal (z-score) (Gal(b1-6)Gal): -0.12
glycan array binding signal (z-score) (Gal3S(b1-3)GalNAc): -0.132
glycan array binding signal (z-score) (Gal3S(b1-3)GlcNAc): -0.117
glycan array binding signal (z-score) [4]: -0.117
glycan array binding signal (z-score) (Gal3S(b1-4)Glc): -0.116
glycan array binding signal (z-score) (Gal3S(b1-4)Glc6S): -0.129
glycan array binding signal (z-score) (Gal3S(b1-4)GlcNAc): -0.124
glycan array binding signal (z-score) [5]: -0.116
glycan array binding signal (z-score) [6]: -0.12
glycan array binding signal (z-score) [7]: -0.121
glycan array binding signal (z-score) (Gal3S4S(b1-4)GlcNAc): -0.124
glycan array binding signal (z-score) (Gal3S6S(b1-4)GlcNAc): -0.119
glycan array binding signal (z-score) (Gal3S6S(b1-4)GlcNAc6S): -0.109
glycan array binding signal (z-score) (Gal4S(b1-4)GlcNAc): -0.114
glycan array binding signal (z-score) (Gal4S6S(b1-4)GlcNAc): -0.12
glycan array binding signal (z-score) (Gal6P(b1-4)GlcNAc): -0.106
glycan array binding signal (z-score) (Gal6S(b1-3)GlcNAc): 9.99
glycan array binding signal (z-score) (Gal6S(b1-3)GlcNAc6S): 6.09
glycan array binding signal (z-score) (Gal6S(b1-4)Glc): 1.73
glycan array binding signal (z-score) (Gal6S(b1-4)Glc6S): 3.07
glycan array binding signal (z-score) (Gal6S(b1-4)GlcNAc): 9.6
glycan array binding signal (z-score) (Gal6S(b1-4)GlcNAc6S): 13.3
glycan array binding signal (z-score) (GalNAc(a1-3)Gal): -0.126
glycan array binding signal (z-score) (GalNAc(a1-3)GalNAc): -0.128
glycan array binding signal (z-score) [8]: -0.122
glycan array binding signal (z-score) [9]: -0.129
glycan array binding signal (z-score) (GalNAc(b1-3)Gal): -0.123
glycan array binding signal (z-score) [10]: -0.121
glycan array binding signal (z-score) [11]: -0.103
glycan array binding signal (z-score) [12]: -0.128
glycan array binding signal (z-score) (GalNAc(b1-3)GalNAc): -0.121
glycan array binding signal (z-score) (GalNAc(b1-3)GlcNAc): -0.125
glycan array binding signal (z-score) (GalNAc(b1-4)Gal(b1-4)Glc): -0.125
glycan array binding signal (z-score) (GalNAc(b1-4)GlcNAc): -0.124
